According to PubChem BioAssay AID886 (National Center for Advancing Translational Sciences (NCATS), 2007):
Among all 73,000 compounds or so, about 2,500 (3.4%) were called active. Inconclusive results, whose numbers are uncertain, are shown with a selection of clear calls. Calls come from the whole dose curve; as a rule, active = well fitted inhibition curve with a large enough effect; inconclusive = small, poorly fitted or top-dose-only effect; inactive = no such curve, though single readings can be large or run the other way. A potency beside an inconclusive call is a rough fit, not a confirmed value.

What follows are compounds tested against 3-hydroxyacyl-CoA dehydrogenase type-2 (Homo sapiens) (UniProt Q99714) (assay: qHTS Assay for Inhibitors of HADH2 (Hydroxyacyl-Coenzyme A Dehydrogenase, Type II)). Details: recombinant HADH2, NADH fluorescence, beta-hydroxybutyryl-CoA; activity change, negative = inhibition: at 57.1 µM (top of the series).
Chain of UniProt Q99714 (Q99714 whole entry, looked up): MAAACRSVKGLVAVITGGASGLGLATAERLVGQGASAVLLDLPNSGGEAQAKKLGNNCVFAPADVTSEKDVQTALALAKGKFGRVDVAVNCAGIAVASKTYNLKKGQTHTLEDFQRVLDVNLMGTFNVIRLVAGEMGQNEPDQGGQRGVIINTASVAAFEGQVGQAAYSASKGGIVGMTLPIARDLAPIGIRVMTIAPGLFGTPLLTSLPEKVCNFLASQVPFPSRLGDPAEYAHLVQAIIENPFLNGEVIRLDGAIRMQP
Chain of UniProt Q99714 (Q99714 whole entry, looked up): as above
In short: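 20 nM HADH2 + cpd, 15 min RT; add 1 mM NAD+/90 uM beta-hydroxybutyryl-CoA; kinetic fluorescence 360/450 nm, 4 min. Tris-HCl pH 9.0, 0.01% Tween-20.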
% is set by controls: 0 for no effect and ±100 for the full control effect; potency is the fitted concentration of half-maximal effect; tags give direction and shape of the fitted curve.
Note: nearly all actives have a fitted effect of over 60% in size.

Compound	Potency	activity change, negative = inhibition
O=c1c(O)c(-c2cccc(O)c2)oc2ccccc12	inconclusive: 10 µM [inhibitor, full curve]	–
O=c1ccc2cc(O)c(O)cc2o1	active: 12.6 µM	–
COc1cccc(-c2nc(N(C)Cc3ccco3)c3ccccc3n2)c1	inconclusive: 31.6 µM [inhibitor, single point]	–
CCCn1c(O)c(CN2CCCC(C)C2)c(C)c(C#N)c1=O (stereo unspecified)	inconclusive: 25.1 µM [inhibitor, partial curve]	–
Cc1noc(C)c1-c1nc(Nc2ccccc2)c2ccccc2n1	inconclusive: 25.1 µM [inhibitor, single point]	–
Cc1nc(N)sc1Cc1ccc2c(c1)OCO2	inconclusive: 10 µM [inhibitor, partial curve]	–
CC1(C)CC(=O)N(c2ccccc2)C1(C)O (stereo unspecified)	–	inactive: -6.88%
Nc1nc(NCc2ccccc2)nc(-c2ccccc2)n1	–	inactive: -4.15%
CCOC(=O)C1=C(C)N(C)C(=O)NC1c1ccccc1OC (stereo unspecified)	–	inactive: 2.82%
COc1ccccc1CNc1ccnc(-c2ccccc2OC)n1	inconclusive: 39.8 µM [inhibitor, single point]	–
O=C(O)c1ccc(N[C@H](c2ccccc2)c2ccc3cccnc3c2O)cc1	inconclusive: 3.98 µM [inhibitor, single point]	–
O=C1CC(C(=O)Nc2ccc(Br)cc2)C2(CCCC2)O1 (stereo unspecified)	inconclusive: 31.6 µM [inhibitor, single point]	–
COc1ccc(CNc2ncnc3ccc(-c4ccccc4OC)cc23)c(OC)c1	inconclusive: 25.1 µM [inhibitor, single point]	–
CCCCCCc1nc2c(=O)[nH]c3ccccc3c2o1	inconclusive: 20 µM [inhibitor, partial curve]	–
c1ccc(Cn2c(CSc3nnnn3-c3ccccc3)nc3ccccc32)cc1	inconclusive: 1.26 µM [inhibitor, full curve]	–
COc1ccccc1CNc1nc(-c2ccoc2)nc2ccccc12	inconclusive: 39.8 µM [inhibitor, single point]	–
COc1ccc(S(=O)(=O)n2ccnc2)c2cccnc12	inconclusive: 31.6 µM [inhibitor, single point]	–
COC(=O)c1nnn(-c2nonc2N)c1CSc1ccc(Cl)cc1	–	inactive: -2.43%
O=C(COc1ccc(S(=O)(=O)N2CCOCC2)cc1)Nc1ccc(Cl)c(C(F)(F)F)c1	–	inactive: 16.7%
Cc1cc(C)c2c(n1)nn1c(NCCCn3ccnc3)cc(C)nc21	inconclusive: 39.8 µM [inhibitor, single point]	–
Cc1csc(NC(=O)CSc2nncn2C)n1	inconclusive: 31.6 µM [inhibitor, single point]	–
Oc1[nH]c2ccccc2c1OCc1ccncc1	inconclusive: 6.31 µM [inhibitor, single point]	–
NS(=O)(=O)c1cc2c(cc1Cl)NC=NS2(=O)=O	inactive	–

Compound	Potency	activity change, negative = inhibition
Cc1cc2n(n1)C(c1ccc(N(C)C)cc1)Nc1ccccc1-2 (stereo unspecified)	inconclusive: 31.6 µM [inhibitor, single point]	–
O=C(COc1ccccc1)Nc1nc(-c2ccc(S(=O)(=O)N3CCOCC3)cc2)cs1	inconclusive: 6.31 µM [inhibitor, partial curve]	–
Cn1c(=O)c2[nH]c(-c3ccccc3)nc2n(C)c1=O	inconclusive: 3.16 µM [inhibitor, single point]	–
CC(C)=NOCc1ccc(-c2cn([C@@H]3COC[C@@H]3O)nn2)cc1	inconclusive: 1 µM [inhibitor, partial curve]	–
O=C(COC(=O)c1cc(S(=O)(=O)N2CCOCC2)ccc1Cl)Nc1ccc2c(c1)OCO2	–	inactive: -4.97%
O=C1CCCC/C1=C\Nc1ccccc1C(=O)O	inconclusive: 39.8 µM [inhibitor, single point]	–
CN(Cc1nc2ccccc2c(=O)[nH]1)CC(O)COCc1ccco1 (stereo unspecified)	inconclusive: 5.01 µM [inhibitor, single point]	–
COc1ccc(-c2nnc(SCc3cc(C)cc(C)c3)o2)cc1	inconclusive: 1.58 µM [inhibitor, single point]	–
Cc1cc(C)n(-c2nc3sc4c(c3c3nnc(SCC(N)=O)n23)CC(C)(C)OC4)n1	inconclusive: 39.8 µM [inhibitor, single point]	–
Cc1cc2cc3c(cc2nc1SCC(=O)O)OCCO3	inconclusive: 20 µM [inhibitor, partial curve]	–
O=C(CN1CCOCC1)N1CCCc2c1c(=O)oc1ccc(OCc3ccccc3)cc21	inconclusive: 20 µM [inhibitor, single point]	–
O=C(O)C[C@H](NC(=O)CP(=O)(O)O)C(=O)O.[NH-][C@@H]1CCCC[C@@H]1[NH-].[Pt]	inconclusive: 1.26 µM [inhibitor, full curve, poor fit]	–
CC(=O)NCCNc1ncncc1-c1ccccc1C(F)(F)F	inconclusive: 15.8 µM [inhibitor, partial curve]	–
Oc1ccc(-c2nc(-c3ccc(O)c(O)c3)cs2)cc1	active: 1 µM	–
CCOc1ccccc1C1C(C(=O)OC)=CN(C)C=C1C(=O)OC	active: 31.6 µM	–
CCN(CC)c1ccc(NC(=O)C2CCCN(S(=O)(=O)c3cnc[nH]3)C2)c(C)c1 (stereo unspecified)	–	inactive: -5.14%
Cc1c(C(=O)NCc2ccccn2)sc2nc(-c3ccc(F)cc3)cn12	–	inactive: 2.5%
COc1ccc(NC(=O)c2ccc(COc3ccccc3Br)o2)cc1OC	inconclusive: 31.6 µM [inhibitor, single point]	–
CCN(CC)CCn1c(-c2ccccc2)nc2c(N3CCOCC3)nc(C)nc21	inconclusive: 39.8 µM [inhibitor, single point]	–
O=C(c1ccc([N+](=O)[O-])cc1)[C@@H](Br)[C@@H](Br)c1ccnc2ccccc12	inconclusive: 2 µM [inhibitor, partial curve]	–
Cc1cccn2c(=O)c3cc(C(=O)NCc4ccco4)c(=N)n(C(C)C)c3nc12	active: 31.6 µM	–
C=CCOC(=O)Nc1c(C(=O)OC)[nH]c2ccccc12	inconclusive: 39.8 µM [inhibitor, single point]	–
COc1ccc2c(c1)c(=O)cc(C)n2CC(=O)NCc1ccco1	inconclusive: 31.6 µM [inhibitor, single point]	–
